# Results: PMC10416995 (2023)
# B1: soluble recombinant integrin αIIbβ3 [not stated] / sCD40L ([…]), wild type, lacking the KGD motif [not stated] (parent complex)
# chain 1: not shown
# chain 2: GPNICTTRGVSSCQQCLAVSPMCAWCSDEALPLGSPRCDLKENLLKDNCAPESIEFPVSEARVLEDRPLSDKGSGDSSQVTQVSPQRIALRLRPDDSKNFSIQVRQVEDYPVDIYYLMDLSYSMKDDLWSIQNLGTKLATQMRKLTSNLRIGFGAFVDKPVSPYMYISPPEALENPCYDMKTTCLPMFGYKHVLTLTDQVTRFNEEVKKQSVSRNRDAPEGGFDAIMQATVCDEKIGWRNDASHLLVFTTDAKTHIALDGRLAGIVQPNDGQCHVGSDNHYSASTTMDYPSLGLMTEKLSQKNINLIFAVTENVVNLYQNYSELIPGTTVGVLSMDSSNVLQLIVDAYGKIRSKVELEVRDLPEELSLSFNATCLNNEVIPGLKSCMGLKIGDTVSFSIEAKVRGCPQEKEKSFTIKPVGFKDSLIVQVTFDCDCACQAQAEPNSHRCNNGNGTFECGVCRCGPGWLGSQC
# chain 3: QNPQIAAHVISEASSKTTSVLQWAEKGYYTMSNNLVTLENGKQLTVKRQGLYYIYAQVTFCSNREASSQAPFIASLCLKSPGRFERILLRAANTHSSAKPCGQQSIHLGGVFELQPGASVFVNVTDPSQVSHGTGFTSFGLLKL
# Variants of: B1
# Test: ELISA-type binding assay (CD40L immobilized to wells; bound soluble αIIbβ3 detected with anti-β3 mAb and HRP-conjugated anti-mouse IgG); 25 µg/mL CD40L coating; 1 mM Mn2+; 1 hr at room temperature; parent: 0.53; read off a plot
row,Variant,response
1,"chain 3 S11R, chain 3 E12G",~0.33 OD450
2,chain 3 K26T,~0.55 OD450
3,chain 3 L38P,~0.28 OD450

# Variants of: B1
# Test: ELISA-type binding assay (CD40L immobilized to wells; bound soluble αIIbβ3 detected with anti-β3 mAb and HRP-conjugated anti-mouse IgG); 50 µg/mL CD40L coating; 1 mM Mn2+; 1 hr at room temperature; parent: 0.64; read off a plot
row,Variant,response
1,"chain 3 S11R, chain 3 E12G",~0.53 OD450
2,chain 3 K26T,~0.7 OD450
3,chain 3 L38P,~0.37 OD450
